{"source": "paper PMC7819943", "about": "“Rice protein-binding microarrays: a tool to detect cis-acting elements near promoter regions in rice”", "note": "The list shows a part of the results."}
{"target": "T1, OsWOX13 (Oryza sativa, UniProt Q5QMM3 1-267)", "T1 sequence": "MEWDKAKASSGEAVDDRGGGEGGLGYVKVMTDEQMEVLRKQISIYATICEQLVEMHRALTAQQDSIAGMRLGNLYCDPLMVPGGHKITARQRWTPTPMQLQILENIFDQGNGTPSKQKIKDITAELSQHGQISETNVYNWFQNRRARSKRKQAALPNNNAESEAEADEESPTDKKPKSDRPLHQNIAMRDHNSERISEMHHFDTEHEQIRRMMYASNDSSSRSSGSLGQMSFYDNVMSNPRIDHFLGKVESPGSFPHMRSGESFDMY", "test": "protein-binding microarray (RPBM); PBS, 2% BSA, 51.3 ng/ul salmon testes DNA, 50 uM zinc acetate, 200 nM TF, 25 C, 1 h; high values mean tight binding", "conditions": "protein: recombinant; tags: N-terminal polyhistidine and DsRed monomer fusion (pET32a); label: CyDye5-dUTP incorporated in the synthesized complementary strand; 3' TTTTT single-stranded linker to array surface; dsDNA, one strand shown", "method_in_brief": "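In PBS with 2% BSA, salmon testes DNA and 50 µM zinc acetate, 200 nM protein was incubated on a custom Agilent array at 25 °C for 1 h and then washed off. The array had been made double-stranded by primer extension with Cy5-dUTP and blocked with 2% BSA. The proteins were transcription factors fused N-terminally to polyhistidine and DsRed, expressed in E. coli BL21-CodonPlus and purified on Ni–NTA. The binding signal is per-feature fluorescence intensity (arbitrary units) from an Axon 4000B scanner.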"}
{"sequence": "TAACAAATTACACAAATTTCGAGTGTCACTAGCAAATTTTCGGAGTCACCTAGTGCAG", "binding signal": "9370 fluorescence intensity (a.u.)"}
{"sequence": "TTACAAATTATTTTATATTTGTAAATATATCATTTCGTCTCGGAGTCACCTAGTGCAG", "binding signal": "8800 fluorescence intensity (a.u.)"}
{"sequence": "AAAATACTGACTGGATTGCCACGCGTATGTCACGTAGGACCGGAGTCACCTAGTGCAG", "binding signal": "6400 fluorescence intensity (a.u.)"}
{"sequence": "ACCAGGAAGTCATAAATTAATGGATCGAATATGACCTGCTCGGAGTCACCTAGTGCAG", "binding signal": "3160 fluorescence intensity (a.u.)"}
{"sequence": "TATCTAAATTATATAACAATAATAAGATTAAAATAGCATTCGGAGTCACCTAGTGCAG", "binding signal": "7050 fluorescence intensity (a.u.)"}
{"sequence": "GGTATTAACTTAGAACACTAAATTGGATTCATATGGTTCACGGAGTCACCTAGTGCAG", "binding signal": "4450 fluorescence intensity (a.u.)"}
{"sequence": "TGAGCTATTATTGATTAACATAAGTTCAGGTGGGTTTCTTCGGAGTCACCTAGTGCAG", "binding signal": "11900 fluorescence intensity (a.u.)"}
{"sequence": "AGATAAATCACATTTACATGCAAATGATTCCACTTGTCATCGGAGTCACCTAGTGCAG", "binding signal": "7850 fluorescence intensity (a.u.)"}
{"sequence": "CTAATAACAAAACAAATTATAGATTCCGACTGTAAACTGCCGGAGTCACCTAGTGCAG", "binding signal": "8560 fluorescence intensity (a.u.)"}
{"sequence": "AGATAGATTAATATATAATATATCTTATTGCAAACATGCGCGGAGTCACCTAGTGCAG", "binding signal": "19400 fluorescence intensity (a.u.)"}
{"sequence": "GGTTTGGATGATTAGCTACACGTAAAACGAGAAACGCGGTCGGAGTCACCTAGTGCAG", "binding signal": "14100 fluorescence intensity (a.u.)"}
{"sequence": "CACTACAACAGATTGGTAACATCGAGTACCAGACAGATTGCGGAGTCACCTAGTGCAG", "binding signal": "13600 fluorescence intensity (a.u.)"}
{"sequence": "GATAATTCTTATGTTACTGACTAATATGATAGTACTGAGTCGGAGTCACCTAGTGCAG", "binding signal": "5770 fluorescence intensity (a.u.)"}
{"sequence": "TAATTTGATTGTGTTGCATATTCAAAATTTTAACTTTATTCGGAGTCACCTAGTGCAG", "binding signal": "13900 fluorescence intensity (a.u.)"}
{"sequence": "ACCATTTTAATTACTACTTAATGACATTATTTATGCTTCGCGGAGTCACCTAGTGCAG", "binding signal": "20800 fluorescence intensity (a.u.)"}
{"sequence": "TTGAATTAATTTAATTATTAATAACTGCACCACACGCGCTCGGAGTCACCTAGTGCAG", "binding signal": "41100 fluorescence intensity (a.u.)"}
{"sequence": "AATTGTGATTTTGCTATCGCAAAAGATTGGTTTCGCTGAACGGAGTCACCTAGTGCAG", "binding signal": "6300 fluorescence intensity (a.u.)"}
{"sequence": "TATAATTTGACAATGTAATGCTACATAAAACATTTGCTAACGGAGTCACCTAGTGCAG", "binding signal": "28200 fluorescence intensity (a.u.)"}
{"sequence": "ATAGATAGATTTCTCCATAAGTAATTACATTGTAGGTAGGCGGAGTCACCTAGTGCAG", "binding signal": "28500 fluorescence intensity (a.u.)"}
{"sequence": "CAAGATTGGGACAAAATATCATCTTCGCTTGAGGAAATGACGGAGTCACCTAGTGCAG", "binding signal": "7720 fluorescence intensity (a.u.)"}
{"sequence": "CCTACAATAGACAAATTTAAAACCGGTTCGATTCTTCAGACGGAGTCACCTAGTGCAG", "binding signal": "4420 fluorescence intensity (a.u.)"}
{"sequence": "TTCTAATTTTATAAAATTTGAATGGCATATTTATAAATATCGGAGTCACCTAGTGCAG", "binding signal": "9090 fluorescence intensity (a.u.)"}
{"sequence": "TTATTGATTGTTCGAATTTTAAAAGTTTTAATTGAATGTTCGGAGTCACCTAGTGCAG", "binding signal": "45200 fluorescence intensity (a.u.)"}
{"sequence": "AGCTAAATCTGTGATTGCCGTTGCATCTAGCCACGTCGTCCGGAGTCACCTAGTGCAG", "binding signal": "14600 fluorescence intensity (a.u.)"}
{"sequence": "GCAAAGTTCACTGCAAATGATTAGATCCTAATTCCCAGACCGGAGTCACCTAGTGCAG", "binding signal": "3160 fluorescence intensity (a.u.)"}
{"sequence": "ATTAGCTAATACTTAATTAATCACATACTAATGGACCGTTCGGAGTCACCTAGTGCAG", "binding signal": "5940 fluorescence intensity (a.u.)"}
{"sequence": "AAAATGATTTATTAATCATTACATGACTAAAATCATAAGCCGGAGTCACCTAGTGCAG", "binding signal": "38300 fluorescence intensity (a.u.)"}
{"sequence": "ATCTCAAATTTTGCAAATTTATAATGGTATGGTTCCATCTCGGAGTCACCTAGTGCAG", "binding signal": "9580 fluorescence intensity (a.u.)"}
{"sequence": "CCATTACGTGATCACAGATTGATCAAGAAATGCTTGACGACGGAGTCACCTAGTGCAG", "binding signal": "19600 fluorescence intensity (a.u.)"}
{"sequence": "ATTGATGATTGAAATTTGCTGTGCAAATCGAGAACTGAAGCGGAGTCACCTAGTGCAG", "binding signal": "53500 fluorescence intensity (a.u.)"}
{"sequence": "TGCCTAATCAATCCATCAAAATTTCTCGACTTGCCTGAGACGGAGTCACCTAGTGCAG", "binding signal": "18000 fluorescence intensity (a.u.)"}
{"sequence": "TATCGATCGATTGATTGCTATAGCTAGGTCAAATCGATCGCGGAGTCACCTAGTGCAG", "binding signal": "28100 fluorescence intensity (a.u.)"}
{"sequence": "AATGATTAACGATGTGGAGTATGTGGATAATATTAGGCAACGGAGTCACCTAGTGCAG", "binding signal": "29000 fluorescence intensity (a.u.)"}
{"sequence": "TTGGATATTAGTAGTAGATTGGCCAACATCACCATGTCAACGGAGTCACCTAGTGCAG", "binding signal": "6380 fluorescence intensity (a.u.)"}
{"sequence": "GCCACTAAATTAATCCGGTGATTGATCATGTGTGGAAGCACGGAGTCACCTAGTGCAG", "binding signal": "54200 fluorescence intensity (a.u.)"}
{"sequence": "TAAAATTAAATTTAAGTTATCATAAATTTAAGGTGAAACGCGGAGTCACCTAGTGCAG", "binding signal": "11100 fluorescence intensity (a.u.)"}
{"sequence": "GTCCGGCATGATTGATCGGAGTGGTCGGCCCGAGCCACGTCGGAGTCACCTAGTGCAG", "binding signal": "24300 fluorescence intensity (a.u.)"}
{"sequence": "CGAACAGATTGATTCGCTTCGATTCGAGGGAGGAGGGGAGCGGAGTCACCTAGTGCAG", "binding signal": "15400 fluorescence intensity (a.u.)"}
{"sequence": "ATATTTATGTAATTATTAGTTGTAGATGACAGGTATAGTACGGAGTCACCTAGTGCAG", "binding signal": "4700 fluorescence intensity (a.u.)"}
{"sequence": "GATCCTAATTACGCCAGCTTACCATGTCTGCAGAGAAAACCGGAGTCACCTAGTGCAG", "binding signal": "5580 fluorescence intensity (a.u.)"}
{"sequence": "GGAAGATTGAGACGAGGCAGATTGTGGTGGAGGAGACTAGCGGAGTCACCTAGTGCAG", "binding signal": "21500 fluorescence intensity (a.u.)"}
{"sequence": "CTACCTGGATTGGATTGGATACACAGAATTCTAGTTAGAACGGAGTCACCTAGTGCAG", "binding signal": "8770 fluorescence intensity (a.u.)"}
